Source: the RNAGym collection of RNA variant scans (doi:10.7554/elife.90254)
The source gives no read counts; variants with many changes may rest on few reads.

B1: LINE1-mini (parent)
chain: GGCAGAGCUCAACACAGCGUGGCAAAGUGGCUGUGGCUAGACUGCC

Variants of: B1
Assay: self-cleavage, relative activity (ratio to wild type); higher = more cleavage; in vitro, sequencing; the parent is a self-cleaving ribozyme

Row | Variant | self-cleavage
1 | GGCAGAGCUCAACACAUCUUGGCAGAGUGGCUGUGGCUAAACUGCC [G17U G19U A25G G40A] | 0.02
2 | UGCAGAGCUCAACACAGCGGGGCAAAGUGACUGUGGCUAGACUGCC [G1U U20G G30A] | 0.06
3 | GCCAGAGCUCAUCACAGCGUGGCAAAGUGGCUGUGCCUAGAAUGCA [G2C A12U G36C C42A C46A] | 0.07
4 | GGCAGAGGUCAACACAGCGUGACAAAGUGGCUGUGGCUAGACUGCA [C8G G22A C46A] | 0.02
5 | GGCAGAGCUCAACACUGCGUGGCAAAGUGCCGGUGGCUGGACUACC [A16U G30C U32G A39G G44A] | 0
6 | GGCAGCGCUCAACAAAGCGUGGCAAAGUUGCUGUGGCUCGGCUGCC [A6C C15A G29U A39C A41G] | 0.06
7 | GGCAGAGCUGAACACAGCGUGGCAAAGUCGCUGUGGCUAGACUGCA [C10G G29C C46A] | 0.03
8 | GGCAGAGCUCAACACAGCGUGGCACAGUGGCUGUGGAUAGAUUGCC [A25C C37A C42U] | 0.07
9 | UGCAGAGCUCAACACAGCGUGGAAAAGUUGCUGUGGCUAGACUCCC [G1U C23A G29U G44C] | 0.18
10 | GGAAGAGCUCAACAGAGCGUGGCAAAUUGGCUGUGGCUAGACUGCC [C3A C15G G27U] | 0.08
11 | GGCGGAGCUCAACAUAGCGUGGCAAAAUGGCUGUGGCUAGACUGCC [A4G C15U G27A] | 0.8
12 | GGCAGAGUUCAACACAGUGUGGCAAAGUGGCUCUGGCUAGACCGCC [C8U C18U G33C U43C] | 0.03
13 | GGCAGAGCUCAACACAGCGUGGAAAAUUGGCUGUGGCUAGACCGCC [C23A G27U U43C] | 0.19
14 | GGCAGAGCUCAACCCAGCUUGGCAAAGUGGUUGUGGCUAGACUGAC [A14C G19U C31U C45A] | 0
15 | GACAAAGCUCAAGACACCGUGGCAAAGUGGCUGUGGCUAGACUGCC [G2A G5A C13G G17C] | 0.1
16 | GGCAGAGCUCAACACAGCGUGGCAAAGUUGCUGUGACUAUACUGCG [G29U G36A G40U C46G] | 0.03
17 | UGCACAGCUCAACACAGCGUGGCAAAGUGGCUGUGGUUAGACUGUC [G1U G5C C37U C45U] | 0.03
18 | GGCAGGGCUAAACACAGCGUGGCAAUGUGGCUGUGGCUAGACUGCC [A6G C10A A26U] | 0.01
19 | GGCAGAGCUAAACACAGCGUGGCAAAAUGGCUGUGGCAAGACUGCC [C10A G27A U38A] | 0.43

Row | Variant | self-cleavage
20 | GGCAAAGCUCAACACAGCGUGGCAAAGUUGCUGUGGCUUGACUGUC [G5A G29U A39U C45U] | 0.26
21 | GGCAGACCUCAAUACAGCGUAGCAAAGUGGCUGUGGCUAGACUGCC [G7C C13U G21A] | 0.06
22 | GGCAGAGCUCAACUCUGCGUGGCAAAGUGGCUGGGGCUUGACUGCC [A14U A16U U34G A39U] | 0.04
23 | GGUAGAGCUCACCACAGCGUGGCAAAGUGUCUGUGGCUAGACUGCC [C3U A12C G30U] | 0.02
24 | GGCAGAGCUCAACACAGCGUGGCAAUGUGGGUGUCGCCAGACUGCC [A26U C31G G35C U38C] | 0.09
25 | GGCAAAGCGCCACACAGCGUGGCAAAGUGGCUGUGGCUAGACUGCC [G5A U9G A11C] | 0.01
26 | GGCAGAGCCCAACACAGCGUAGCAAAGUGGCUGUGUCUAGACUGCC [U9C G21A G36U] | 0.04
27 | GGCAUAGCUCAACACAGCGUGGCAAAGUGGCUGUGGCUCGACUACC [G5U A39C G44A] | 0.03
28 | GGCAGAGCUCAACACAUCGUGGCAAACUGGCUGUGGCUAGCCUGCC [G17U G27C A41C] | 0.12
29 | GGCCGAGCUCAACAAUGCGUGGGAAAGUGGCUGUGGUUAGACAGCC [A4C C15A A16U C23G C37U U43A] | 0.01
30 | UGCAGAGCUCAUCACAGCGUGGCACAGUGGCUGUGGCUAGACUGCC [G1U A12U A25C] | 0.06
31 | GGCAGAGCUCAACACAGCCUGGCAAAGAGGCUUUGGCUAGACUGCC [G19C U28A G33U] | 0.11
32 | GGCAGAUCUCUACACAGCAUGGCAAAGUGGCUGUGGCUUGACUGCC [G7U A11U G19A A39U] | 0.08
33 | GGCAGAGCUCAACACAGCGUGGUAAAGUGGUUGUGGCUAGAUUGCC [C23U C31U C42U] | 0.08
34 | GGCAGAGCCCAACACAGCGUGGCAAAGUGGCUGUGACUAGAAUGCC [U9C G36A C42A] | 0
35 | GGCUGAGCUCAACAGAGCGUGGCAAAGUUGCUGUGGCUAGACUGCC [A4U C15G G29U] | 0.05
36 | GGCAGAGCUCAACAUGGCGUGGCAAAGUGGCUGUGGCUAGACUGAC [C15U A16G C45A] | 0.15
37 | GGCAGAGCUCAACUUAGCGUGGCAAAGUGGCUGUGGCUAUACUGCC [A14U C15U G40U] | 0.18
38 | GGCAGAGAUCAACACGGCGUGGCAGAGUGGCUCUGGCUAGACUGCC [C8A A16G A25G G33C] | 0.09

Row | Variant | self-cleavage
39 | GCCAGAGCUCCACACACCGUGGCAAUGUUGCUGUGGCUAGACUGCC [G2C A11C G17C A26U G29U] | 0.02
40 | GGCAGAGUCCAACACAGCGUGGCAAAGUGGCUUUAGCUAGACUGCC [C8U U9C G33U G35A] | 0.03
41 | GGAAGAGCUCAACACAGCGUGGCAAAGUGACUGUGGCUAGACUACA [C3A G30A G44A C46A] | 0.1
42 | UGCCGAGCUCAACACAGCGUGGCAAAGUGGCUGUGGCUAGACCGCC [G1U A4C U43C] | 0.06
43 | GGCAGUGCUCAACACAGCCUGGCAAGGUGGCUGUGGCUAGAGUGCC [A6U G19C A26G C42G] | 0.01
44 | CGCAGAGCUCAACACAGCAUGGCAAAGUGGCUGUGGCUUGACUUCC [G1C G19A A39U G44U] | 0.06
45 | GGCAGAGGUCAACACAACGUGGCAAAGUGGCUGUGUCGAGACUGCC [C8G G17A G36U U38G] | 0.03
46 | GGCAGGGCUCAACACAGCGUGGAAAAAUGGCUGUGGUUAGAGUGCC [A6G C23A G27A C37U C42G] | 0
47 | CGCAGAGCUCAACACAGCUAGGCUAAGUGGCUGUGGCUAGACUGCC [G1C G19U U20A A24U] | 0.03
48 | GGCAGAGCUCAGCAUAGCGUGGCAAAGCGGCUGUGGUUAGACUGCC [A12G C15U U28C C37U] | 0.02
49 | GGCUGAGAUCAGCACAGCGUGGUAAAGUGGCUGUGGCUAGACUGCC [A4U C8A A12G C23U] | 0.16
50 | GGCAGAGCUCAACACAGCGUGGCAAAGUGUCCGUGGCUAGACUGCG [G30U U32C C46G] | 0.06
51 | GGGAAAACUCAAGAAAGCGUGGCAAAGUGGCUGUGGCUAGACUGCC [C3G G5A G7A C13G C15A] | 0.13
52 | GGCCGAGCUCAACAGAGCGUGGCAAAGUGGCUGUGGCUAGUCUGCC [A4C C15G A41U] | 0.02
53 | GGCAAAGCUUAACAUAGCGUGGCAAAGUGGCUGUGGCUAGACUGCC [G5A C10U C15U] | 0.16
54 | GGUUGAGCUCAACACAGCGUUGCAAAGUGGCUGUGGCUAGACUGCC [C3U A4U G21U] | 0.12
55 | GGCACAGCUUAACACGGCGUGGCAAAGUGGCUGUGGCUAGACUACC [G5C C10U A16G G44A] | 0
56 | GGCAGAGCUCAACACAACGUGGCAUAGUGGCUGUGGAUAGACUGCC [G17A A25U C37A] | 0.11
